Experimental data from PubChem BioAssay (NCATS).
Inconclusive results, whose numbers are uncertain, are shown with a selection of clear calls. Where the call is inconclusive, the potency comes from a doubtful curve fit. The source made the active and inactive calls. Calls come from the whole dose curve; as a rule, active = well fitted cell-killing curve with a large enough effect; inconclusive = small, poorly fitted or top-dose-only effect; inactive = no such curve, though single readings can be large or run the other way.

Assay: qHTS of pediatric cancer cell lines to identify multiple opportunities for drug repurposing: Primary screen for MG 63 (6-TG R) cells (AID 1347105); note: nearly all actives have a fitted effect of over 50% in size
Details: MG 63 (6-TG R) viability, CellTiter-Glo, 48 h; activity change, negative = cytotoxic: at 46 µM (top of the series)
Source text: Drug repurposing or repositioning has been offered as a strategy for drug development in oncology programs. This approach has special potential for childhood cancers and other rare or orphan diseases, where the expected return on new drug development has been a disincentive to pharmaceuticals. […] In this project we exploit the poly-pharmacology of drugs to discover new indications via phenotypic screening of a panel of 19 well-characterized cell lines derived from solid tumors seen in children and adolescents. The goal is to identify approved drugs with previously unrecognized anticancer properties that has the potential to reveal new mechanisms and biological processes involved in carcinogenesis or drug resistance. We employed a titration-based paradigm (quantitative high-throughput screening or qHTS), where all compounds were tested at multiple concentrations for their effect on cell viability. Concentration-response curves (CRCs) were derived directly from the primary screen, and both potency and efficacy values were used to identify compounds with robust bioactivity profiles. We screened the NIH Chemical Genomics Center (NCGC) Pharmaceutical Collection (NPC) and Mechanism Interrogation Plate (MIPE) small molecule collections of approved and investigational compounds against these cell lines; and measured metabolically active cells after 48 hours of compound treatment as a proxy for cell viability. […] Assay Submitter: Nathalia J. Martinez, National Center for Advancing Translational Sciences, National Institutes of Health, Rockville, MD, USA; email: natalia.martinez@nih.gov Shen, M et al. Quantitative high-throughput phenotypic screening of pediatric cancer cell lines identifies multiple opportunities for drug repurposing. Oncotarget 2017 Dec 19;9(4):4758-4772. PMID 29435139.
The cells were obtained from University of North Carolina (UNC), Pediatric Preclinical Testing Program (PPT), and Coriell Institute (CI). qHTS cell viability assay: Cells were assayed in growth media at a density of 500-1,000 cells/well. Five microliters of cells were dispensed into 1,536-well, white, solid-bottom, TC-treated plates (Greiner Bio One) using a multidrop dispenser and incubated at 37 degrees C, 5% CO2, under a humidified atmosphere for 5 hours. Twenty-three nanoliters of compounds and controls (neutral control DMSO or positive control bortezomib at final concentration of 2.3 µM) were subsequently transferred by Kalypsys pintool. For primary screens, the MIPE collection was tested at 11-point dilutions (final concentrations range from 0.78 nM to 46 µM) and the NPC collection at 8-point dilutions (final concentrations range from 0.59 nM to 46 µM). Compounds tested in follow-up screens were assayed at 11-point dilutions. Cells were incubated for 48 hours, followed by addition of 3 µL of CellTiter-Glo (Promega). After a 15 min incubation at room temperature, samples were analyzed for luminescence intensity using a ViewLux High-throughput CCD imager equipped with clear filters.
% is set by controls: 0 for no effect and ±100 for the full control effect; potency is the fitted concentration of half-maximal effect; tags give direction and shape of the fitted curve.

With `Cc1scc2c1N(C(=O)CN1CCN(C)CC1)c1ccccc1NC2=O` as the compound, how does the Potency read?
Its Potency is “inactive”.

For `CCCN(CCC)S(=O)(=O)c1ccc(C(=O)O)cc1`, which Potency is on record?
Its Potency is “inactive”.

Which Potency does the source give for `CCOC(=O)[C@H](CCc1ccccc1)N[C@@H](C)C(=O)N1[C@@H](C(=O)O)C[C@H]2CCC[C@@H]21` here?
Its Potency is active: 18.7 µM.

Which Potency does the source give for `CCc1cc(S(=O)(=O)O)c2cc(C(C)C)cccc1-2` here?
The Potency was “inactive”.

For `COC(=O)C1C2CC3c4[nH]c5cc(OC)ccc5c4CCN3CC2CC(OC(=O)c2cc(OC)c(OC)c(OC)c2)C1OC` (stereo not given), which Potency is on record?
Its Potency is “inactive”.

With `COc1ccccc1N1CCN(CCCCNC(=O)c2ccc(-c3ccc(C(C)=O)cc3)cc2)CC1` as the compound, how does the Potency read?
The Potency was “inactive”.

For `CC(C)C(C)(C)C(C)(C)C(C)(C)S`, which Potency is on record?
Its Potency is “inactive”.

Which activity change, negative = cytotoxic does the source give for `CCC(C(=O)OCCOCCN(CC)CC)c1ccccc1` (stereo not given) here?
The activity change, negative = cytotoxic was inconclusive: -31.6% [cytotoxic].

For `C#C[C@]1(O)CC[C@H]2[C@@H]3CCc4cc(OC5CCCC5)ccc4[C@H]3CC[C@@]21C`, which Potency is on record?
The Potency was inconclusive: 21.1 µM [cytotoxic, single point].

For `CNC(=O)c1ccc(Nc2cc(Nc3ccccc3S(=O)(=O)C(C)C)c3cc[nH]c3n2)nc1`, which Potency is on record?
Its Potency is active: 5.9 µM.

With `CC[C@@]1([C@@H]2O[C@@H]([C@H]3O[C@@](O)(CO)[C@H](C)C[C@H]3C)C[C@H]2C)CC[C@H]([C@]2(C)CC[C@]3(C[C@H](O)[C@@H](C)[C@@H]([C@@H](C)[C@@H](OC)[C@H](C)C(=O)O)O3)O2)O1` as the compound, how does the Potency read?
Its Potency is inconclusive: 0.512 µM [cytotoxic, full curve].

With `COc1cc(CCc2cc(NC(=O)c3ccc(N4C[C@@H](C)N[C@@H](C)C4)cc3)n[nH]2)cc(OC)c1` as the compound, how does the Potency read?
The Potency was inconclusive: 29.6 µM [cytotoxic, single point].

For `O=C1NCCc2[nH]c(-c3ccncc3)cc21`, which Potency is on record?
The Potency was inconclusive: 7.43 µM [cytotoxic, full curve].

With `COc1cc2c(cc1O)CCC1C2CC[C@@]2(C)C1CC[C@@H]2O` (stereo not given in full) as the compound, how does the Potency read?
Its Potency is inconclusive: 4.69 µM [cytotoxic, full curve, poor fit].

With `CO/N=C(/C(=O)N[C@@H]1C(=O)N2C(C(=O)O)=C(Cn3nnc(C)n3)CS[C@H]12)c1csc(N)n1` as the compound, how does the Potency read?
Its Potency is “inactive”.

For `CS(=O)(=O)N1CCc2c(-c3cnc(N)nc3)nc(N3CCOCC3)nc21`, which Potency is on record?
The Potency was active: 0.118 µM.

Which Potency does the source give for `O=C(C=CC#Cc1cccc(NS(=O)(=O)c2ccccc2)c1)NO` here?
Its Potency is active: 5.9 µM.

With `O=C(Nc1cccc(Nc2ncc(Br)c(NCCc3cnc[nH]3)n2)c1)N1CCCC1` as the compound, how does the Potency read?
Its Potency is active: 14.8 µM.

For `O=C(O)c1ccc(S(=O)(=O)N(Cl)Cl)cc1`, which Potency is on record?
The Potency was “inactive”.

With `CCn1cc(-c2ccnc3[nH]c(-c4cccc(CN(C)C)c4)cc23)c(-c2ccc(NC(=O)N(C)C)cc2)n1` as the compound, how does the Potency read?
The Potency was active: 4.69 µM.

Which Potency does the source give for `CCOC(=O)c1ccc(N)cc1` here?
The Potency was “inactive”.

For `CCCCCCCCOc1ccc(C(=O)c2ccccc2)c(O)c1`, which Potency is on record?
The Potency was “inactive”.

With `CCCCCCCCCCOCC(O)CN` (stereo not given) as the compound, how does the Potency read?
The Potency was inconclusive: 33.5 µM [cytotoxic, single point].

With `O=C(Oc1cccc2cccnc12)c1ccccc1` as the compound, how does the activity change, negative = cytotoxic read?
The activity change, negative = cytotoxic was inconclusive: -101%.

With `C[C@]12CC[C@@H]3c4ccc(O)cc4CC[C@H]3[C@H]1CC[C@H]2O` as the compound, how does the Potency read?
Its Potency is inconclusive: 14.8 µM [cytotoxic, partial curve].

For `COc1cc(C(=O)N2CCC(N3CCN(C)CC3)CC2)ccc1Nc1ncc2c(n1)N(C)c1ccccc1C(=O)N2C`, which Potency is on record?
Its Potency is active: 9.35 µM.

With `OC1(c2ccc(Cl)c(C(F)(F)F)c2)CCN(CCCC(c2ccc(F)cc2)c2ccc(F)cc2)CC1` as the compound, how does the Potency read?
The Potency was active: 13.3 µM.

For `CCc1cccc(CC)c1NC(=O)CN(CC(=O)O)CC(=O)O`, which Potency is on record?
The Potency was “inactive”.

With `Cc1cnn(C)c1C(=O)Nc1cc(Nc2ccc3c(C=Cc4ccccn4)n[nH]c3c2)ccc1F` as the compound, how does the activity change, negative = cytotoxic read?
The activity change, negative = cytotoxic was inconclusive: -33.2% [cytotoxic].

With `NC(=O)C1(N2CCCCC2)CCN(CCCN2c3ccccc3CCc3ccc(Cl)cc32)CC1` as the compound, how does the Potency read?
The Potency was inconclusive: 21.1 µM [cytotoxic, single point].

Which Potency does the source give for `COc1ccc(CCN(C)CCCC(C#N)(c2cc(OC)c(OC)c(OC)c2)C(C)C)cc1OC` (stereo not given) here?
The Potency was inconclusive: 21.1 µM [cytotoxic, partial curve, poor fit].

With `CNC(=O)Nc1ccc(-c2nc(N3CC4CCC(C3)O4)c3cnn(C4CCC5(CC4)OCCO5)c3n2)cc1` as the compound, how does the Potency read?
Its Potency is active: 0.0118 µM.

Which Potency does the source give for `O=C(O)C[C@H](O)C[C@H](O)C=Cc1c(C2CC2)nc2ccccc2c1-c1ccc(F)cc1` here?
The Potency was active: 1.48 µM.

Which Potency does the source give for `CC(=O)N(CC(O)CO)c1c(I)c(C(=O)NCC(O)CO)c(I)c(C(=O)NCC(O)CO)c1I` (stereo not given) here?
The Potency was “inactive”.

With `O=C(NCN1CCOCC1)c1cnccn1` as the compound, how does the Potency read?
Its Potency is “inactive”.

For `CCOC(=O)NNc1nncc2ccccc12`, which Potency is on record?
The Potency was “inactive”.

For `Nc1ncnc2c1ncn2Cc1c(F)cccc1Cl`, which Potency is on record?
Its Potency is “inactive”.

With `COc1cccc2c1C(=O)c1c(O)c3c(c(O)c1C2=O)C[C@@](O)(C(C)=O)C[C@H]3O[C@H]1C[C@H](N)[C@H](O)[C@H](C)O1` as the compound, how does the Potency read?
Its Potency is active: 0.372 µM.

Which Potency does the source give for `Cc1cc2c(cc1S(N)(=O)=O)S(=O)(=O)CCC2` here?
Its Potency is “inactive”.

With `NC(CO)(CO)CO` as the compound, how does the Potency read?
The Potency was “inactive”.
